Source: PubChem BioAssay AID485294 (National Center for Advancing Translational Sciences (NCATS), 2010)
About 150 (0.041%) of roughly 370,000 compounds were called active. The inconclusive results got no clear call from the source; some entries with a clear call stand among them for comparison. Calls follow the shape of the dose curve; as a rule, active = well fitted inhibition curve with a large enough effect; inconclusive = small, poorly fitted or top-dose-only effect; inactive = flat fitted curve, though single readings scatter. No potency is given beside an inconclusive call; the fits are too rough.

Target: Beta-lactamase (Escherichia coli (strain K12)) (UniProt P00811)
Experiment: qHTS Inhibitors of AmpC Beta-Lactamase (assay with detergent); also: nearly all actives have a fitted effect of over 25% in size
Conditions: AmpC hydrolysis of nitrocefin, absorbance 480 nm, 0.01% Triton; series mostly up to 114 µM
How it was run: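 AmpC (5.3 nM in the dispensed reagent) in 20 mM phosphate pH 7.0 with 0.01% (detergent screen) or 0.0001% Triton X-100 was preincubated with compounds for 15 min at room temperature. Nitrocefin was then added from an 800 uM solution, and hydrolysis was followed at 480 nm.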
Potency is read from the fitted curve at half-maximal effect; tags tell the direction and shape of the fitted curve.

UniProt P00811, sequence (P00811 whole entry, looked up): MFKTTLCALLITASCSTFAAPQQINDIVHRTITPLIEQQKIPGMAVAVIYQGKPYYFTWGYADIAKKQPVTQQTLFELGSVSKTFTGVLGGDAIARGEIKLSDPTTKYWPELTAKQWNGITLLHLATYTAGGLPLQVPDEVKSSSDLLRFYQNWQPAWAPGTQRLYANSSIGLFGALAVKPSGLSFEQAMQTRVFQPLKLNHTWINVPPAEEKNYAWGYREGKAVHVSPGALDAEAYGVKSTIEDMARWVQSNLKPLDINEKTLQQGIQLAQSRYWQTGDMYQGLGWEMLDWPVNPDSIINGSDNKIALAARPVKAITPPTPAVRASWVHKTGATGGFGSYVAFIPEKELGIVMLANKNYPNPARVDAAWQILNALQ

Compound | Potency
Cc1ccc(OCC(=O)N/N=C/C=C/c2ccco2)cc1 | inconclusive [inhibitor, single point]
O=C(N/N=C/c1ccccc1O)C1SCCCS1 | inactive
CN(C)c1ccc(C(CNS(=O)(=O)c2ccc(Br)cc2)N2CCCC2)cc1 (stereo not drawn) | inactive
CC1=C(C(=O)Nc2cccnc2)C(c2ccc(C(C)C)cc2)n2ncnc2N1 (stereo not drawn) | inconclusive [inhibitor, full curve, poor fit]
COc1ccc(S(=O)(=O)N2CCC(N3CCN(Cc4ccccc4)CC3)CC2)cc1 | inactive
COc1ccc(-n2ccn(Cc3ccccc3Cl)c(=O)c2=O)cc1OC | inactive
COc1ccc(-c2[nH]c3ccccc3c2SCCNC(=O)c2ccccc2)cc1 | inconclusive [inhibitor, single point]
COc1ccccc1-n1c(-c2ccoc2)nc2ccccc2c1=O | inconclusive [inhibitor, full curve, poor fit]
c1ccc2nc(N3CCOCC3)c(N3CCOCC3)nc2c1 | inconclusive [inhibitor, full curve, poor fit]
COc1ccc(C(=O)Nc2nc(C)c(C)s2)cc1OC | inconclusive [inhibitor, single point]
Cc1cc(NC(=O)c2ccccc2Cl)no1 | inconclusive [inhibitor, partial curve]
COc1ccc(CNC(=O)c2cnc3n(c2=O)CCS3)cc1 | inconclusive [inhibitor, partial curve, poor fit]
CCN(C(=O)CSc1nc2ccccc2n1CC(=O)Nc1ccccc1C)c1ccccc1 | inactive
CCOC(=O)Cc1nnc(NC(=O)C(CC)Sc2nc(C)cc(C)n2)s1 (stereo not drawn) | inconclusive [inhibitor, full curve, poor fit]
Cc1ccc(S(=O)(=O)N(CC(O)CN2C(=O)NC(C)(C)C2=O)c2ccccc2)cc1 (stereo not drawn) | inconclusive [inhibitor, full curve, poor fit]
CC1CCCN(C(=O)CSCC(=O)Nc2nc(-c3cccs3)cs2)C1 (stereo not drawn) | inconclusive [inhibitor, full curve, poor fit]
O=C(Nc1c2ccccc2nc2ccccc12)C(Cl)(Cl)Cl | inactive
O=[N+]([O-])c1c(NCCO)cc(N2CCCCC2)c2nonc12 | inactive
Cc1cc(SCC(=O)c2cccc([N+](=O)[O-])c2)nc(=O)[nH]1 | inconclusive [inhibitor, full curve, poor fit]
COc1cccc(CC2(CO)CCCN(Cc3ccc(CO)o3)C2)c1 (stereo not drawn) | inactive
CC(C)N(Cc1ccccc1)C(=O)CN1C(=O)COc2ccc(S(=O)(=O)NC3CCCC3)cc21 | inactive
O=C(c1cc(-c2ccccc2)nc2ccccc12)N1CCCC1 | inactive
CCOc1ccc(CNC(=O)c2cnc3sc(N(CC)CC)nn3c2=O)cc1OC | inactive

Compound | Potency
CCc1nc2cccnc2n1-c1ccc(CC(=O)Nc2ccc(C)cc2)cc1 | inactive
O=C(NCCSc1ccccn1)c1ccc(Cl)cc1 | inconclusive [inhibitor, single point]
C/C(Cn1nc([N+](=O)[O-])cc1C)=N\NC(=O)c1cccc(Br)c1 | inconclusive [inhibitor, full curve, poor fit]
COc1ccc(C2CC(c3cccs3)=NN2C(=O)c2ccccc2)cc1OC (stereo not drawn) | inactive
CC(=O)OC(COc1ccccc1)Cn1cnc2cc(C)c(C)cc21 (stereo not drawn) | inconclusive [inhibitor, single point]
O=c1[nH]c(/C=C/c2ccc(OC(F)F)cc2)nc2c1cnn2-c1ccccc1 | inconclusive [inhibitor, partial curve]
Cc1ccc(S(=O)(=O)NCCSc2nncn2C)cc1 | inconclusive [inhibitor, full curve, poor fit]
COc1cc(OC)c(OC)cc1CNC(C)C(O)c1ccccc1 (stereo not drawn) | inconclusive [inhibitor, partial curve, poor fit]
CC(C)(Oc1ccc(CCNC(=O)c2ccc(-c3ccccc3)o2)cc1)C(=O)O | inconclusive [inhibitor, full curve]
O=C(CCC(=O)N1CCN(S(=O)(=O)c2ccc3ccccc3c2)CC1)Nc1cc(Cl)cc(Cl)c1 | inconclusive [inhibitor, single point]
CC(C)(C)c1ccc(NC(=O)c2cc[n+]([O-])cc2)cc1 | inactive
Cc1c(CC=C(Cl)Cl)c(=O)[nH]c2c(C)cccc12 | inconclusive [inhibitor, full curve, poor fit]
N#C/C(=C/c1cn(-c2ccccc2)nc1-c1cccc(S(=O)(=O)N2CCCC2)c1)C(=O)NCc1ccco1 | inactive
CCOc1ccc(-c2nn(-c3ccccc3)cc2/C=C2\SC(=S)N(C3CCS(=O)(=O)C3)C2=O)cc1 (stereo not drawn) | inconclusive [inhibitor, single point]
CCN(CC)S(=O)(=O)c1cc(NC(=O)COC(=O)c2sc3ccccc3c2Cl)ccc1C | inconclusive [inhibitor, full curve, poor fit]
CCCNC(=O)N1CCN(S(=O)(=O)c2ccc3c(c2)OCCO3)CC1 | inactive
CN(c1ccccc1)S(=O)(=O)c1cccc(NC(=O)CCNC(=O)c2ccccc2)c1 | inconclusive [inhibitor, full curve, poor fit]
CCCN1CCN(CCCNC(=O)c2ccc3c(=O)n(CCc4ccccc4)c(=O)[nH]c3c2)CC1 | inconclusive [inhibitor, full curve]
CC(C)CC(=O)Nc1ccccc1N1CCCC1 | inactive
O=C(/C=C/c1ccccc1)Nc1ccc(Cl)cn1 | inactive
O=C(CSc1nc2ccccc2c(=O)[nH]1)Nc1cccc([N+](=O)[O-])c1 | inconclusive [inhibitor, full curve, poor fit]
CCc1c(C)nc(SCC(=O)N2CCCCC2)[nH]c1=O | inconclusive [inhibitor, partial curve, poor fit]
CCN1CCN(C(=O)C2c3cc(OC)c(OC)cc3C(=O)N(C)C2c2ccc(SC)cc2)CC1 (stereo not drawn) | inconclusive [inhibitor, partial curve]

Compound | Potency
Cc1ccc(Cl)cc1-n1c(SCC(=O)NCCC2=CCCCC2)nc2n[nH]c(C)c2c1=N | inconclusive [inhibitor, full curve]
O=C(Cn1c2ccc(F)cc2c2nc3n(c(=O)c21)CCS3)NCC1CCCO1 (stereo not drawn) | inconclusive [inhibitor, single point]
COc1ccc(Cc2nn3c(-c4cc(OC)c(OC)c(OC)c4)nnc3s2)cc1 | inconclusive [inhibitor, full curve, poor fit]
COc1ccc(/C=C/C(=O)NCCc2ccc(OC)c(OC)c2)cc1 | inconclusive [inhibitor, full curve, poor fit]
CCn1nnnc1SCC(=O)Nc1cc(OC)cc(OC)c1 | inconclusive [inhibitor, full curve, poor fit]
O=C(Cn1cc(C(=O)COc2ccccc2)c2ccccc21)NCc1ccco1 | inconclusive [inhibitor, full curve, poor fit]
CCN(CC)c1ccc(C(=O)NNC(=O)CCNC(=O)c2ccccc2)cc1 | inconclusive [inhibitor, full curve, poor fit]
CCOc1ccccc1-c1nc(Cn2c(=O)cc(C)c3c(C)nn(-c4ccccc4)c32)c(C)o1 | inactive
O=[N+]([O-])c1cnc(N2CCCCC2)c([N+](=O)[O-])c1 | inconclusive [inhibitor, partial curve]
Cc1ccc(C(=O)N/N=C\c2c(C)nn(-c3ccccc3)c2Cl)cn1 | inactive
CC1(C)CC(=O)C2=C(C1)Nc1cc(C(=O)c3ccccc3)ccc1NC2c1ccccn1 (stereo not drawn) | inconclusive [inhibitor, full curve]
CC1CCN(c2nnc(N)s2)CC1 | inconclusive [inhibitor, full curve, poor fit]
Cc1cc(C)nc(NC(N)=S)n1 | inconclusive [inhibitor, single point]
O=C(CCc1nc(-c2ccccc2)no1)NCc1ccccc1CN1CCOCC1 | inactive
CC(=O)NC(c1ccc2ccccc2c1)c1ccc2cccnc2c1O (stereo not drawn) | inconclusive [inhibitor, full curve, poor fit]
CCOC(=O)C(Cc1c(F)cccc1F)(NC(C)=O)C(=O)OCC | inconclusive [inhibitor, full curve, poor fit]
O=C(Nc1nc2ccccc2n1Cc1ccccc1)c1ccco1 | inactive
COC(=O)c1onc(-c2ccccc2)c1C(=O)OC | inconclusive [inhibitor, full curve, poor fit]
O=c1[nH]c2ccccc2n1CCCSCCCn1c(=O)[nH]c2ccccc21 | inconclusive [inhibitor, full curve, poor fit]
CCN(CC)c1ccc(C(=O)NNC(=O)CN2C(=O)NC(C)(c3ccccc3)C2=O)cc1 (stereo not drawn) | inconclusive [inhibitor, full curve, poor fit]
O=C(COC(=O)/C=C/C(=O)OCC(=O)NC12CC3CC(CC(C3)C1)C2)NC12CC3CC(CC(C3)C1)C2 | inactive
Cc1ccc(/C=N/n2nnnc2N)cc1[N+](=O)[O-] | inconclusive [inhibitor, single point]
